Some of the results follow. The energies were worked out here from pooled read counts, against the library average; single values are noisy.
biological target: T1, Pho4 (S. cerevisiae) (UniProt P07270); experiment: relative binding free energy (BET-seq); higher = weaker binding; conditions: reference: library average
T1 sequence: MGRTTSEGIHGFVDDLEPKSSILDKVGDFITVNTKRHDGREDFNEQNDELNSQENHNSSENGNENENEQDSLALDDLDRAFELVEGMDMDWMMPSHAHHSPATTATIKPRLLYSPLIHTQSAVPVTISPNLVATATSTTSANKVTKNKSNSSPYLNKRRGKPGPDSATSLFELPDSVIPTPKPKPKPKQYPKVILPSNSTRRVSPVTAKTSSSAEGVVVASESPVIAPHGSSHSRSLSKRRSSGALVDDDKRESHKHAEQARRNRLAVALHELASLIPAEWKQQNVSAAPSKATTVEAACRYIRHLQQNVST

Sequence | relative binding free energy [kcal/mol]
GGTCGCACGTGCTGGG | 0.02
GGTATCACGTGTCTTT | 0.28
ATAGGCACGTGTTGTT | -0.09
GGTGACACGTGGGTCG | -0.05
AATGACACGTGTAGTG | 0
GGTCGCACGTGGGTAA | -0.03
GTCGTCACGTGTTTGC | 0.12
CTGGTCACGTGTATGC | 0.11
TAATACACGTGGTTTT | 0.03
CTCTGCACGTGTTTGG | -0.05
TAAGGCACGTGTGCTA | -0.12
GGTTGCACGTGGCGCG | 0.04
AAGTGCACGTGCGAGT | -0.04
GTAGGCACGTGGTCAT | -0.22
GTGTACACGTGGAAAG | 0.13
CGTGACACGTGGTCGG | -0.08
GATTTCACGTGTGGCT | 0.33
GAGAGCACGTGCCGGG | 0
TGTCTCACGTGGTTTT | 0.32
TCAGTCACGTGTGTAA | 0.06
GGCATCACGTGGTGTA | 0.1
AGTTTCACGTGGTTAC | 0.21
GCATTCACGTGTGAGT | 0.36
AGGGGCACGTGGTAGG | -0.17
GGCGCCACGTGACGGT | 0.34
GTTGCCACGTGTGAGT | 0.09

Sequence | relative binding free energy [kcal/mol]
GGACTCACGTGTTTTT | 0.42
TTTAGCACGTGCTATG | -0.04
GGTCTCACGTGTGTAA | 0.19
GGCGTCACGTGCATGG | -0.03
GGGGGCACGTGCGTAG | -0.21
TGTTCCACGTGAGGGG | 0.27
ATGGACACGTGATTTT | 0.26
CTTATCACGTGTGAGT | 0.18
GTGGGCACGTGAATCT | 0.16
AGTGACACGTGGCGGT | -0.02
TTAGGCACGTGTGCGT | -0.11
GTGAACACGTGGTAAG | 0.08
TATTGCACGTGAGGGG | 0.08
ATGTTCACGTGGTGTT | 0.25
TGGGGCACGTGAGCGA | 0.01
CTGGGCACGTGATATG | -0.24
TACTACACGTGGTTGG | 0.03
CGGCTCACGTGTGAGT | 0.35
AGGGGCACGTGTTTAG | -0.06
ATTATCACGTGTTTGT | 0.03
GTACTCACGTGTTTGT | 0.18
TTAAGCACGTGCGTGG | -0.29
TTTCACACGTGCGTGT | 0.04
GGGCTCACGTGTGCGA | 0.3
GTGGCCACGTGGATAT | 0.12
CTTGGCACGTGGTTAG | -0.2

Sequence | relative binding free energy [kcal/mol]
TGAGGCACGTGTTTTA | -0.16
TTTGACACGTGTATGT | 0.06
GTTGGCACGTGGGACA | -0.21
CATAGCACGTGGAGGG | -0.08
TATTGCACGTGTTATG | 0.04
TCTTCCACGTGGGTTG | -0.08
GGCGTCACGTGGATTG | 0.17
TGTTGCACGTGACGCG | 0.09
ATATCCACGTGCGGGT | 0.01
GCGTTCACGTGGTGGC | 0.35
CAGGACACGTGAGTTT | 0.39
GTGCTCACGTGGTTCT | 0.32
AGGCTCACGTGATGGG | 0.4
CGTTGCACGTGGATGG | -0.06
GTATACACGTGTGAGT | 0.13
GGTGGCACGTGTAGAC | -0.06
AATGTCACGTGAAGCG | 0.44
ATAGTCACGTGGCAGG | -0.05
GCGGGCACGTGGGGGT | -0.27
AGGACCACGTGGTGGG | -0.11
TCGCGCACGTGAGTGG | 0.08
GGACGCACGTGGATGG | -0.09
GAGTTCACGTGTCTGT | 0.36
TTTTGCACGTGCATTC | 0.09
ACGTACACGTGGTGGG | 0.07
TGCTCCACGTGTTTGT | -0.07

Sequence | relative binding free energy [kcal/mol]
TATTTCACGTGGGTAA | 0.28
TTCAACACGTGTTTTA | 0.11
TTCGTCACGTGTGCAG | 0.08
TGTATCACGTGTAGGC | 0.1
TTTTTCACGTGCCGTA | 0.32
GGTCTCACGTGGCGTA | 0.21
AATGTCACGTGATAAG | 0.22
GCAGGCACGTGGTCGT | -0.22
GGGGTCACGTGTTTCA | 0.15
AAGGTCACGTGTGAGT | 0.17
GAGTGCACGTGTTGTC | 0.07
GGGGCCACGTGGGCCG | -0.13
TTTGTCACGTGAATTC | 0.31
GCTGACACGTGTATGG | 0.02
TTCATCACGTGATTGG | 0.37
TAATGCACGTGTGGAG | -0.04
GTGGACACGTGGATGC | 0.2
CGGGTCACGTGGGGCC | 0.08
AATTGCACGTGAGGTG | 0.24
GGCGTCACGTGTTGAG | 0.2
TGCTTCACGTGGGAAG | 0.15
GATGACACGTGAGGGT | 0.23
GTGAACACGTGTATGG | 0.05
TAGGACACGTGGTGCT | -0.05
TAAAGCACGTGGGCTG | -0.18
GCGTACACGTGGGATG | 0.07

Sequence | relative binding free energy [kcal/mol]
CGTGTCACGTGCGAGT | -0.03
TGAGACACGTGGAGTT | 0
AGGACCACGTGTAGGT | -0.03
TGATGCACGTGTTCAG | 0.04
TAATTCACGTGGTCAT | 0.35
GTTTTCACGTGTTATG | 0.37
GAAGGCACGTGGGCTG | -0.15
GTAAACACGTGAGTTA | 0.23
AATTGCACGTGGAGAG | -0.04
GTTGGCACGTGACCGG | 0
TTGAACACGTGGAGTG | -0.04
TTCCGCACGTGGTTTG | 0.01
TGTGTCACGTGTTACT | 0.12
GGAGGCACGTGAGGCA | 0.23
TGTTTCACGTGGCTGA | 0.17
GTAAGCACGTGAATTT | 0.18
ATAGTCACGTGTTAAG | 0.08
ATATACACGTGTAGGA | -0.1
TGCTTCACGTGGGCTG | 0.08
TTTTACACGTGAAGTT | 0.37
AGTTCCACGTGGAGGT | 0.06
TGCCACACGTGTTGGG | -0.02
AGGTGCACGTGGAACG | -0.14
TGGCTCACGTGCGGGG | 0.04
TTAGACACGTGTTACG | 0.04
ACGTTCACGTGGGGCG | 0.08

Sequence | relative binding free energy [kcal/mol]
AAGGTCACGTGTGTCG | 0.02
TTAAGCACGTGCCTGG | -0.01
TTGGTCACGTGAGGGT | 0.26
TAAGACACGTGGTTGA | -0.11
GCTCGCACGTGCGGGG | -0.16
CGTTACACGTGGTAAG | 0.06
GGAGACACGTGGATGG | 0.06
TTTGCCACGTGTTGGT | -0.07
GATGCCACGTGGGTGG | -0.11
GATGGCACGTGGCAGG | -0.15
TATTTCACGTGTATTC | 0.26
TGATTCACGTGTATAG | 0.27
CTATTCACGTGGGTGT | 0.21
GATGTCACGTGTGGTC | 0.16
TTGTCCACGTGGGAGA | -0.07
GGAGTCACGTGGTCTT | 0.05
AATTGCACGTGTGAGC | 0.24
TTAGGCACGTGGCAGG | -0.28
TGGGGCACGTGTTTGT | -0.02
ATTAACACGTGTCTTT | -0.09
GACGGCACGTGGCGGT | -0.17
GTCGTCACGTGTTGAG | 0.12
TGGGGCACGTGAGGCG | 0.14
TTTTGCACGTGATCTG | 0.08
ATTAACACGTGGGAGT | -0.07
TGGGACACGTGTATTG | 0.05

Sequence | relative binding free energy [kcal/mol]
ATGTTCACGTGATGGC | 0.34
CATTTCACGTGTGATG | 0.3
ATATTCACGTGTGATG | 0.37
GGTTTCACGTGATGCT | 0.32
GGGTGCACGTGTTTCG | -0.03
TTGGTCACGTGATAGG | 0.16
CGTAGCACGTGGGGCT | -0.28
GGGTCCACGTGATTGT | 0.24
CAAGGCACGTGGTGGG | -0.18
TTAGTCACGTGTCCGG | 0.14
TTCGGCACGTGTGATA | 0.1
TAACGCACGTGTTATT | -0.02
GGAGGCACGTGTTGGT | -0.05
TGTTGCACGTGACGGG | 0.01
GTTTGCACGTGGGTTG | -0.02
TTCGTCACGTGTATGA | 0.04
ATCGGCACGTGGGGAT | -0.13
AGCAGCACGTGATGTG | 0
TTTTTCACGTGGTGGG | 0.35
TTTTGCACGTGTGGTT | 0.09
AATGGCACGTGAAAAG | 0.14
TGTGCCACGTGAGTCG | 0.12
GGCTACACGTGGTGAG | 0.13
GATAGCACGTGTGTCG | 0.05
TGTATCACGTGGGGAC | 0.05
AGATTCACGTGTTTGG | 0.25

Sequence | relative binding free energy [kcal/mol]
AGTGGCACGTGGGAGT | -0.2
TCGAGCACGTGAGGGT | 0.12
TCGGGCACGTGACAGG | 0.01
TTGCACACGTGTGTAT | 0.02
CGGGGCACGTGACGGC | 0.02
ACTTGCACGTGGATGT | 0.07
GCTGGCACGTGGTGCA | -0.21
CGGCACACGTGTGTGG | 0.03
TCGTACACGTGGATGG | 0.05
TTTATCACGTGGGGAT | 0.02
ATTGACACGTGTAGTC | 0.15
ATGCTCACGTGTCGGT | 0.22
ATATTCACGTGAGTTA | 0.26
TCTGTCACGTGGGAAG | 0.08
AGAGTCACGTGTTCGG | -0.06
TGTGGCACGTGCGAGG | -0.04
GGGTTCACGTGTAAGC | 0.48
TAGCACACGTGTCGTG | 0.06
GAAAGCACGTGCTGGG | -0.02
CTGTGCACGTGGTGTA | -0.23
ATGGGCACGTGCTTAT | -0.16
GTTTACACGTGGATGT | 0.16
AGTGACACGTGAATAG | 0.31
TAGTGCACGTGGATAT | 0.01
GAAGTCACGTGGGGCG | 0
CGGGTCACGTGTGATA | 0.26

Sequence | relative binding free energy [kcal/mol]
TGTAGCACGTGATGAG | 0.01
ATAGCCACGTGGGCTG | -0.13
ATGTTCACGTGAGAAT | 0.3
GGCTGCACGTGAGGTC | 0.44
AGTCTCACGTGTAGGC | 0.29
GTCAACACGTGTTGTT | 0.05
TGGCTCACGTGCTTGG | 0.32
TGTGGCACGTGGGCAA | -0.23
CTTGTCACGTGTGGTC | 0.19
TGGTTCACGTGGCCTT | 0.23
ATCGTCACGTGGGGGG | -0.07
GCGCGCACGTGGGTTG | -0.19
GGGACCACGTGTGCGG | 0.08
TTGATCACGTGGGTAC | 0.04
TGTGTCACGTGGGGCA | -0.05
TGTTTCACGTGAGGGC | 0.41
TTAGGCACGTGCGTAT | -0.24
TATGTCACGTGAGTGG | 0.25
TTTAGCACGTGTGTAG | -0.08
TCAGGCACGTGGGGAA | -0.16
AAATACACGTGTTTTT | 0.04
GCTTTCACGTGGGTTA | 0.17
